From a compilation of properties of binary mixtures (doi:10.1016/j.molliq.2020.113457)
Some of these densities may be calculated back from excess volumes.

Assay: xn = mol fraction of the nth substance listed
Conditions: 101 kPa

C=CC(=O)OC + CCCC[n+]1ccn(C)c1.F[B-](F)(F)F
mass density [kg/m3]
Conditions	293.15 K	298.15 K	303.15 K	308.15 K	313.15 K	318.15 K
x2 = 0	955.4	–	943.1	936.9	–	–
x2 = 0.0694	989.8	984.1	978.4	972.6	966.9	961
x2 = 0.1387	–	1014.7	1009.3	1003.9	–	993.1
x2 = 0.1889	1039.6	1034.5	1029.4	1024.3	1019.1	1013.8
x2 = 0.239	1057.5	1052.7	1047.8	1042.8	–	1032.7
x2 = 0.3354	1087.8	1083.4	–	1074.3	1069.6	–
x2 = 0.4317	1113.7	1109.7	–	1101.1	1096.7	1092.1
x2 = 0.5005	1129.9	1126	1122.1	1117.9	1113.7	1109.2
x2 = 0.5693	1144.3	1140.7	1136.9	1132.9	1128.8	1124.5
x2 = 0.6532	1160	1156.5	1152.9	1149.1	1145.2	–
x2 = 0.737	1173.7	1170.4	1166.9	1163.3	1159.6	1155.6
x2 = 0.7927	1181.8	1178.6	1175.2	1171.7	1168	1164.1
x2 = 0.8484	1189.1	1186	1182.7	–	1175.6	1171.8
x2 = 0.9242	–	1194.9	1191.7	1188.3	1184.7	–

CCCC[n+]1ccn(C)c1.F[B-](F)(F)F + C=CC(=O)OC
x1 = 1
Conditions	mass density [kg/m3]
293.15 K	1205.6
298.15 K	1202.6
308.15 K	1195.9
318.15 K	1188.3
